The list shows a part of the results.
biological target: T1, OsWOX13 (Oryza sativa, UniProt Q5QMM3 1-267); experiment: protein-binding microarray (RPBM); PBS, 2% BSA, 51.3 ng/ul salmon testes DNA, 50 uM zinc acetate, 200 nM TF, 25 C, 1 h; high values mean tight binding; settings: protein: recombinant; tags: N-terminal polyhistidine and DsRed monomer fusion (pET32a); label: CyDye5-dUTP incorporated in the synthesized complementary strand; 3' TTTTT single-stranded linker to array surface; dsDNA, one strand shown
T1 sequence: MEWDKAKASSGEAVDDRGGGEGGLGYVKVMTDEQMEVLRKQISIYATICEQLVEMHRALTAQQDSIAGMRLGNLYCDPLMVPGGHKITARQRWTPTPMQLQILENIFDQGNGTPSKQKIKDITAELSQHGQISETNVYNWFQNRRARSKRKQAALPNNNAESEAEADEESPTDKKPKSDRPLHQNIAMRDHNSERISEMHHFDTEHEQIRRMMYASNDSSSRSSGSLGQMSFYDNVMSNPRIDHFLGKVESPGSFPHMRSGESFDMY
In short: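 Binding signal is defined as the fluorescence intensity of each feature in arbitrary units, read on an Axon 4000B scanner. Transcription factors with N-terminal polyhistidine and DsRed fusions came from E. coli BL21-CodonPlus and were purified on Ni–NTA. They were incubated at 200 nM for 1 h at 25 °C on a custom Agilent array that had been made double-stranded with Cy5-dUTP, with 50 µM zinc acetate present, and the array was washed.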

Sequence | binding signal
TTGTGCACTTGTGATTGCTTGAGGTGTACTGCACATAAGACGGAGTCACCTAGTGCAG | 3640 fluorescence intensity (a.u.)
AGGATAAAATTTCTGCAATTATTGGGGTACGGTCCACCTACGGAGTCACCTAGTGCAG | 4490 fluorescence intensity (a.u.)
TGCTGACAGATTCTAACACAGCCAACCATATGCAATGCAACGGAGTCACCTAGTGCAG | 25300 fluorescence intensity (a.u.)
AGTTTTAGCCTAAATTGGGTAAATTATATTTTAACCGTAACGGAGTCACCTAGTGCAG | 11600 fluorescence intensity (a.u.)
GGAGAGATTAAGGGAATAATTGCCCGGACACCTCTCGGTTCGGAGTCACCTAGTGCAG | 5680 fluorescence intensity (a.u.)
CTCTCTAAAATTAGTTTAATTATACTATAACTCGTATATACGGAGTCACCTAGTGCAG | 5850 fluorescence intensity (a.u.)
CTTTCATGGTGATTTGCTCTTCTTGTTTGCATGCATGCACCGGAGTCACCTAGTGCAG | 10800 fluorescence intensity (a.u.)
TTGCAACAAAGTGAAATGCTAATTGGAACATTCATTTCTGCGGAGTCACCTAGTGCAG | 3330 fluorescence intensity (a.u.)
TTTGGTTAATTACGCACCGGTCCCCGCTAATATCCGCCGTCGGAGTCACCTAGTGCAG | 16300 fluorescence intensity (a.u.)
AAGACTAAAGGCTCAATTGATTGGACGGGAGATATGAAAACGGAGTCACCTAGTGCAG | 9490 fluorescence intensity (a.u.)
CCAGCTGAGAAATTGATTGATGTATAGCACTCCGATCTTCCGGAGTCACCTAGTGCAG | 21900 fluorescence intensity (a.u.)
TTGATAGGATTTCTTATATAGTACCAAAATTTAACAGCAACGGAGTCACCTAGTGCAG | 3910 fluorescence intensity (a.u.)
GGTAATTAAAGGGGTGTTTATATCTCGGTTGTAAAGGGTTCGGAGTCACCTAGTGCAG | 13000 fluorescence intensity (a.u.)
GACCGACCCTGCTAACTAAATTAATTTTACATTTCCTTCACGGAGTCACCTAGTGCAG | 5990 fluorescence intensity (a.u.)
GCAGTATGATTAGCTTCAGAGCAACAATAAACCAGATGCTCGGAGTCACCTAGTGCAG | 13700 fluorescence intensity (a.u.)
TTTACAACTAATTATTCTTTCAGTGGTAGACAACGTCGTCCGGAGTCACCTAGTGCAG | 9430 fluorescence intensity (a.u.)
CTAATCAATAGACTGAAATTTGAACTATTTGTATCCATCCCGGAGTCACCTAGTGCAG | 14000 fluorescence intensity (a.u.)
TTATGACCGGTTTTGATTAGTTAAGAGACGCCAGATATCTCGGAGTCACCTAGTGCAG | 14300 fluorescence intensity (a.u.)
TATGGTCTGATTATTTGTCAGTACTTTGGATACACCAATTCGGAGTCACCTAGTGCAG | 3480 fluorescence intensity (a.u.)
GCCGGTACATGAACCACATGATTGATTCCCCTCTTCCGCTCGGAGTCACCTAGTGCAG | 17500 fluorescence intensity (a.u.)
CACCGATAATTGCGATATCTTATCATGTTACATCGCACGGCGGAGTCACCTAGTGCAG | 24300 fluorescence intensity (a.u.)

Sequence | binding signal
CCTTTAAATTAGATTTCTTAGCATGTGTTCGTTATGTGTGCGGAGTCACCTAGTGCAG | 38300 fluorescence intensity (a.u.)
ATGGGTCTGTCAATGAATTTTGACAAATCCTAAACGAAATCGGAGTCACCTAGTGCAG | 5590 fluorescence intensity (a.u.)
ATTAATTAGGTTTGATCTCTTTAAAACAATTCCTCCTTCCCGGAGTCACCTAGTGCAG | 24000 fluorescence intensity (a.u.)
GTAAATTGCGAGATGAATTTATTAAGCCTAATTAATCTGTCGGAGTCACCTAGTGCAG | 26000 fluorescence intensity (a.u.)
ATATAAAATTTACAATGTAATATATGGAATTTATAGTGTACGGAGTCACCTAGTGCAG | 4140 fluorescence intensity (a.u.)
TTAATATTTAATTAATTATATATTAATGGCTTACCTTATTCGGAGTCACCTAGTGCAG | 27500 fluorescence intensity (a.u.)
GGAAACTGACGCATCAGATTTGGAGACTAGCAATGGAGTACGGAGTCACCTAGTGCAG | 3600 fluorescence intensity (a.u.)
AACAAACAACTCAATTTATTTATCTTGTCATACGGCAATCCGGAGTCACCTAGTGCAG | 3570 fluorescence intensity (a.u.)
TAGTAATTAAAACACAATTAATCATGCGCTAATAGCTTCCCGGAGTCACCTAGTGCAG | 29000 fluorescence intensity (a.u.)
GTACCAATCGTCTCATCATGATCTAAGCCAAATCTAAACACGGAGTCACCTAGTGCAG | 4310 fluorescence intensity (a.u.)
AAGCTAAATTAACTGAAAGTATCACATTAACTCGTAATTTCGGAGTCACCTAGTGCAG | 22300 fluorescence intensity (a.u.)
AAATGATTGCATCACATTGACAAAATTGATAACGTATACACGGAGTCACCTAGTGCAG | 32100 fluorescence intensity (a.u.)
AAAACCAGGTAATTAATTAAAAGCACATTTCGTGCGGTGGCGGAGTCACCTAGTGCAG | 13800 fluorescence intensity (a.u.)
CTTAACTGAATAAACTGCCTGACTTTGGGACAATAGGTCACGGAGTCACCTAGTGCAG | 39300 fluorescence intensity (a.u.)
AATCGTGACAGGTGATTCCACCAGCCGATCTTGACCGTTGCGGAGTCACCTAGTGCAG | 7030 fluorescence intensity (a.u.)
CGTGGCCTCGCCGTATCAATCACGAGAAGGGGAGAAAAGTCGGAGTCACCTAGTGCAG | 3860 fluorescence intensity (a.u.)
CATCTGATTACAACTATATAATCCAATCTGCTTAATAAAGCGGAGTCACCTAGTGCAG | 19200 fluorescence intensity (a.u.)
GGTGGTTAAATACTCATCTTGATTGATTATCCTTTTCTTACGGAGTCACCTAGTGCAG | 18600 fluorescence intensity (a.u.)
TTATGCCAAATCTAATACTTGATTACTACTCCATCCGTCCCGGAGTCACCTAGTGCAG | 3980 fluorescence intensity (a.u.)
ATCTAAGTATGATTAGCATACTATGACATCTATAGACACGCGGAGTCACCTAGTGCAG | 15800 fluorescence intensity (a.u.)
ATTTATTAAATCTAATTAATTCATTATTAGTAAATATTTACGGAGTCACCTAGTGCAG | 5100 fluorescence intensity (a.u.)

Sequence | binding signal
TGTCAATTTGTATTTTGAAGGGTTGGTCCAATACACTAAGCGGAGTCACCTAGTGCAG | 4980 fluorescence intensity (a.u.)
TTTCATTTTAATTGATGTTTTGGACAATACACGGTCTACCCGGAGTCACCTAGTGCAG | 29300 fluorescence intensity (a.u.)
CCCAACGATAATTATGTTTCATTCTCAATGGCAGTAAAAGCGGAGTCACCTAGTGCAG | 14400 fluorescence intensity (a.u.)
ATTGATTGATCAAGACTGCATGGCAATACTCGACGTGCTGCGGAGTCACCTAGTGCAG | 64800 fluorescence intensity (a.u.)
AAAAGATAAATTTACATATAAACAGTACGCTACTATTTATCGGAGTCACCTAGTGCAG | 6070 fluorescence intensity (a.u.)
GACTAATTAACCGCCAACCCCACTACCGCCTCTCTCTTTGCGGAGTCACCTAGTGCAG | 35000 fluorescence intensity (a.u.)
GGTTGTTAATTTAGAGTGTGGTTGAGCAAACCCTCAACTCCGGAGTCACCTAGTGCAG | 7780 fluorescence intensity (a.u.)
TCAAAATTTCAATGAAAATTTTCTCTCCTTGCCACTTCAACGGAGTCACCTAGTGCAG | 3500 fluorescence intensity (a.u.)
AATAAATTACCCATACATCTGCGCGGGCTTTCTTCCTAGTCGGAGTCACCTAGTGCAG | 20400 fluorescence intensity (a.u.)
GTAGTTAATTATGAAACGTTTAGAAAATATATTTATAAGACGGAGTCACCTAGTGCAG | 5580 fluorescence intensity (a.u.)
GCTGACGTAGATAATCTTATGCTTTCAAATTTTACGATAGCGGAGTCACCTAGTGCAG | 5670 fluorescence intensity (a.u.)
AAGATTAATAATACTACTAATTATAACTCATTTCGTGTGACGGAGTCACCTAGTGCAG | 6850 fluorescence intensity (a.u.)
GATGATTATCATGGGATGCTTCATTTGATAATCTTAGAAACGGAGTCACCTAGTGCAG | 14400 fluorescence intensity (a.u.)
CCTCCGAATATTCAATTTGTTGAGTTATTGACGTATAGATCGGAGTCACCTAGTGCAG | 4190 fluorescence intensity (a.u.)
GAATATATATAATTTATAATTTACTAAAATTTGATATTAACGGAGTCACCTAGTGCAG | 8740 fluorescence intensity (a.u.)
TCCTTCATAATTACCTCGCTTCAAAGGACGCAAATATAGTCGGAGTCACCTAGTGCAG | 5810 fluorescence intensity (a.u.)
TCTATCCTTAATCAATCTGTTGCATGTCCGCATTTGTTAGCGGAGTCACCTAGTGCAG | 4620 fluorescence intensity (a.u.)
GATTCTGATTATATATATCGAAATAAAGAAATATTATTGTCGGAGTCACCTAGTGCAG | 11200 fluorescence intensity (a.u.)
TGGTGTTAATATGAAATTTCATCAATTTAAAACTAGCCTCCGGAGTCACCTAGTGCAG | 12000 fluorescence intensity (a.u.)
GTTATGATTTAAATATCAATATTGAAAATTAAATTTATATCGGAGTCACCTAGTGCAG | 15600 fluorescence intensity (a.u.)
TCAATAGAAAATAAACTGATTCATGTTAAAACCTTCACACCGGAGTCACCTAGTGCAG | 5530 fluorescence intensity (a.u.)

Sequence | binding signal
ATTTTACTCTTAGCAATCAATTTAGCATATTTATCTATTCCGGAGTCACCTAGTGCAG | 5790 fluorescence intensity (a.u.)
TTTCTTCATAGATTGAAGCTCTTGTTAAGTTTGAAACCTACGGAGTCACCTAGTGCAG | 4020 fluorescence intensity (a.u.)
AATTAAAATGGAAGGAATTACATTAACTATGAATTCATTGCGGAGTCACCTAGTGCAG | 5160 fluorescence intensity (a.u.)
TTCCAATCACACAAGTCAGTCCAGATGTCATCAAATACAGCGGAGTCACCTAGTGCAG | 17400 fluorescence intensity (a.u.)
ATGAGTTTAATTTGGGTGTTTGACGAGAGCGAAGAGTCGACGGAGTCACCTAGTGCAG | 6460 fluorescence intensity (a.u.)
ACTGCTAAATTTATGAAAATAAGAAGAGAGAAATTGGTTACGGAGTCACCTAGTGCAG | 4730 fluorescence intensity (a.u.)
ACCTACTCACAATCACAGAATCACATCATAACATTATTGTCGGAGTCACCTAGTGCAG | 4160 fluorescence intensity (a.u.)
GCTGATGAGTTTGTGAAACTGTTTCAGCAAGAGTATGGCTCGGAGTCACCTAGTGCAG | 11600 fluorescence intensity (a.u.)
ATCATAATTTGAAATTCAAATTCATACTGTTCAAACAAAGCGGAGTCACCTAGTGCAG | 17600 fluorescence intensity (a.u.)
CTCCCTTTAATTATCATCACAAGACCTCTCTCTCTCTCTCCGGAGTCACCTAGTGCAG | 12800 fluorescence intensity (a.u.)
TGGACAAATTGTGATGATTTGATGAAGATCACATTCTAAACGGAGTCACCTAGTGCAG | 30200 fluorescence intensity (a.u.)
TATGATGTGCACTGATGATGAATTGTTTCGTTCTCCGAAGCGGAGTCACCTAGTGCAG | 9200 fluorescence intensity (a.u.)
CACTCATTCACCTTTACTAATTTATATCTTTTGATGTTTGCGGAGTCACCTAGTGCAG | 7260 fluorescence intensity (a.u.)
TTTAATTATTAACACCAAGGTGTCATGCCGTGAGTGTATCCGGAGTCACCTAGTGCAG | 16700 fluorescence intensity (a.u.)
TGAAATTGATTGTCGTAGGAATTCAGGTGCTTTACTCAAGCGGAGTCACCTAGTGCAG | 36100 fluorescence intensity (a.u.)
TCGATGTACTCAAGATTGATGATATGCTTAAGAAGGGATGCGGAGTCACCTAGTGCAG | 7440 fluorescence intensity (a.u.)
ATAATTGAAAGTTAATCAAACTGGATATAGAAATTATTATCGGAGTCACCTAGTGCAG | 23800 fluorescence intensity (a.u.)
TTCCACTTGATTTCGTGAAATTTCGAATTTCACCGGTGCTCGGAGTCACCTAGTGCAG | 4120 fluorescence intensity (a.u.)
TATTTAATTGGTCCTATGGTACTTGCAGATTAATGTTGGCCGGAGTCACCTAGTGCAG | 37600 fluorescence intensity (a.u.)
ACTTAGATTAACTAACATATATGTATAAATAGGTACACAACGGAGTCACCTAGTGCAG | 15700 fluorescence intensity (a.u.)
ATTATTTGATTGTGGTTTAATTGTTGGTGCAACAGGGTTACGGAGTCACCTAGTGCAG | 47900 fluorescence intensity (a.u.)

— PMC7819943, “Rice protein-binding microarrays: a tool to detect cis-acting elements near promoter regions in rice”
